The labels stand for the following.
B1: chr10:116663695:116664169:-|three_prime_utr|ENSG00000165863|control|control|control (ssRNA)
RNA: GGGAGUUCUACAGUCCGACGAUCCUUUCCUUCCUACUACCGUUUUAAAAAGGGGAUGAAAUGUUUGCAGUGGCCUUUCUGCUUAGCUGGGCCAGCUCCCUGCAACUCACACGGACGGUUCCUCUCCUAGAUGGAAGCUGCCCUCAACAGAGGAUUGAGCAUCA
B2: chr3:141443649:141443750:+|CDS|ENSG00000177311|unk|total|mutant (ssRNA)
RNA: GGGAGUUCUACAGUCCGACGAUCCCUACCAUUGGACAAAAUGGAGGUUCAUUCACAGGUCCAGAACCUUUAUUAUCUGAAAACCGGAUUGGUGAAUUUUCCAGUACCGGAAGUACUUUGCCAGACACGGACCACAUGGUUAAACAACAGAGGAUUGAGCAUCA
B3: chr19:36009119:36009553:-|three_prime_utr|ENSG00000239382|control|control|control (ssRNA)
RNA: GGGAGUUCUACAGUCCGACGAUCGCUGGUGCUCCGCGGCCCCGCCUACACGCGUCUUCUCCACGGCAUCGCCGCCGCCCGCGUAGACGCGCUGGACGCCGCCUCCUCGCCGCCCAAUGCGGCAGCCUGCCCGUCGGCGCGGCCCAACAGAGGAUUGAGCAUCA
B4: ENSG00000087460:stop:overlap|stop_codon|ENSG00000087460|stop_codon|NA|stop_codon (ssRNA)
RNA: GGGAGUUCUACAGUCCGACGAUCGAGGCGCCUUCGGCUCGGGCCAUGGCGCCCGGCGCCGGGGGCGCGAGGAGCGGCUCAUCUAGUCAGACCCCCCACCCCGCCACCGCCACCAGACACCACCAUCGCUGUGUAGUGUGCUGGCAACAGAGGAUUGAGCAUCA
B5: ENSG00000107863:be:win_5051|CDS|ENSG00000107863|bound_else_gene|NA|bound_elsewhere_windowed (ssRNA)
RNA: GGGAGUUCUACAGUCCGACGAUCGUUUAGAUAGCCGGAGACAGCUCUUCAGUUCCCAUAAACUCAUCGAAUGUGAUACUCUUUCCAGGAAAAAAUCAGCUAGAUUCAAGUCAGAUAGUGGAAGUCUAGGAGAUGCCAAGAAUGCAACAGAGGAUUGAGCAUCA
B6: chr3:127036549:127036650:+|3pUTR|ENSG00000114554|msi1|total|mutant (ssRNA)
RNA: GGGAGUUCUACAGUCCGACGAUCGUCUACUGGGACAGCAGUCUCCGAGCUACUCCGUACCUCCCUCUGCCAGGUCGUGGAGUCCGGCCCCAGUCCCUACUUGUCACUGGUUCCCACUGUGCUCCUAACUGUGCAGCACCUGGGCAACAGAGGAUUGAGCAUCA
B7: chr12:39550845:39550946:-|3pUTR|ENSG00000173208|unk|FALSE|unique (ssRNA)
RNA: GGGAGUUCUACAGUCCGACGAUCGGUUCCAAGUAUAGUUUCAUAUUUGGCAAUAGAUUCAUCUUAUUCUAAUAUGUUUGGAAUAGCUUUUUGAUUCAAUGAGUCUAGGAAAAUCUGUUACACAUUGAAACCCAAGUCCAGAGACAACAGAGGAUUGAGCAUCA
B8: chr11:74334375:74334476:-|3pUTR|ENSG00000165434|msi1|total|mutant (ssRNA)
RNA: GGGAGUUCUACAGUCCGACGAUCUUUUUGUUUUAUUUUUAAAAUGUGUAAAACAUCUUUUGUUUUAUAUGCUUUUAAGAAUGCCGAUUGUAAUUCCGGAAAUGGCAUAUAUUCUGCAAAGUGGUAUAAUGUUGUAUAUAUGAACAACAGAGGAUUGAGCAUCA
B9: chr17:8173470:8173636:-|3pUTR|ENSG00000179029|msi1|total|mutant (ssRNA)
RNA: GGGAGUUCUACAGUCCGACGAUCUGUUUGUCUGUAUCGUCAGGUGGGAUAAUCCUUACCUGUUCCUCCUCCGGAGGGCAGAUCCGAACAUGAUGAUUGGAGAUGCAUGAAACGUGAUUAACGUCUCUGCGUAAUCAGGACUUGCAACAGAGGAUUGAGCAUCA
B10: chr22:24226630:24226767:-|CDS|ENSG00000099998|control|control|control (ssRNA)
RNA: GGGAGUUCUACAGUCCGACGAUCCUUCUCAACAGAGUCUAUGGCCAGGCCUGAAGGGAGGGUGAACGUGUACCACCACCUUGUAGAGACGCUCAAGUUUGCCAAGGGGCAGAGGUGGAGGCUGGGGGACCCUCGAAGCCACCCCAACAGAGGAUUGAGCAUCA
B11: chr5:10679541:10679642:-|3pUTR|ENSG00000112977|msi1|total|mutant (ssRNA)
RNA: GGGAGUUCUACAGUCCGACGAUCCUUCAAGGCCCUGUCACCACCUAUUUCCUGAUCAGUUGGUAUAAACUGAGGGUGGCUUUCCGAGACCCAGACUUGGUUGGCAGCGCUGCCAUGGAACACCCCAGCAAGCACCUCCCAGCCCAACAGAGGAUUGAGCAUCA
B12: chr12:57010726:57010903:-|three_prime_utr|ENSG00000166863|control|control|control (ssRNA)
RNA: GGGAGUUCUACAGUCCGACGAUCGAGGGACCCAUAAUUGCAGCUUUCAUAAUCUUACCAUUGAGGGAGCAUUCCCAACCUGUUAGGUGUCAGGCAGAAUAGGACAUAAGGUUUCUGGGAGCUGGCAUUUAAAGAUUAGAUGAGCAACAGAGGAUUGAGCAUCA
B13: chr4:41013971:41014072:-|CDS|ENSG00000163697|msi1|total|mutant (ssRNA)
RNA: GGGAGUUCUACAGUCCGACGAUCGCAGGACCCCAACAAAAACCUGAGCCCCACUGCAGUCAUCAACAUAACUUCUGAGAAGUCCGAGGGUAAAGAGCCCCACCCACAGGAUUCCUCGAGCUGUGAGAUUUUACCCUCCCAGCCCAACAGAGGAUUGAGCAUCA
B14: chr15:42943230:42943331:-|3pUTR|ENSG00000159459|msi1|total|mutant (ssRNA)
RNA: GGGAGUUCUACAGUCCGACGAUCAUUAUGCUUAUGAAGUUUACUUACAAACAAGCAACUGAGUCACUUUAUUUUCUUCCGUGCCGUAUGUGAAGGCACUGGUUCAACAGGAUGGCUCCAGAACUGUGUUUUUCUAAUGUUUGGCAACAGAGGAUUGAGCAUCA
B15: chr15:90501451:90501552:+|3pUTR|ENSG00000140575|msi1_unk|FALSE|overlapping (ssRNA)
RNA: GGGAGUUCUACAGUCCGACGAUCCUGAGCCUCUAUUUUCUUUCUUUGAUGUUUUGAUUCAGUAUUCUUUUAUCAUAAAUUUUUAGCAUUUAAAAAUUCACUGAUGUACAUUAAGCCAAUAAACUGCUUUAAUGAAUAACAAACCAACAGAGGAUUGAGCAUCA
B16: chr4:143221337:143221438:+|3pUTR|ENSG00000170185|unk|total|mutant (ssRNA)
RNA: GGGAGUUCUACAGUCCGACGAUCUUGAAAGGUAACCGAUUUUCCAGAAGUAAAAUCUGAUGGUUCUAAAUCAAUCAAUGUGACCGUUCAUUUUUAACUCUCCGAAGAAUUCAGAGGAAAUUAACCCAGCUAAGUAAAAAAUCUCAACAGAGGAUUGAGCAUCA
B17: chr8:18872320:18872424:-|CDS|ENSG00000156011|unk|FALSE|bound_elsewhere (ssRNA)
RNA: GGGAGUUCUACAGUCCGACGAUCGCCAGAAUCAUUUCCGGAACAUUACAGGCUACAAAGGUACUGGACCAAGAUGCUGUUUCUAGUUUUUCAGUUCAGCAGGUGGAAAAAGAGCUGGACACUGCCAGUCGUAAAACACAGAGACAACAGAGGAUUGAGCAUCA
B18: chrX:55006554:55006655:+|CDS|ENSG00000169188|unk|total|mutant (ssRNA)
RNA: GGGAGUUCUACAGUCCGACGAUCAGGGCGCAAGUGGAUGGACAGCUUGCUCAGUAACUUGGGGUGCCAGUCUGCCUCUCAUGCCGGGCCCUUCAUCGACCGCUACCGCUGCUUCCAACCAAAGCAGGAGGGGGCCUUCACCUGCAACAGAGGAUUGAGCAUCA
B19: chr13:75481370:75481471:-|CDS|ENSG00000136111|msi1|total|mutant (ssRNA)
RNA: GGGAGUUCUACAGUCCGACGAUCCUCAGCGCGCCCUUCCUGCGUUGCGUCCCCGCGCCGGGCGCUGGGGCCUCGGGGGGCACCCGUCCGUCGGCCACGCAGCCCAACCCGGCGGUAUUCAUCUUCGAGCACAAGGCGCAGCAUCAACAGAGGAUUGAGCAUCA
B20: ENSG00000124766:be:win_351|CDS|ENSG00000124766|bound_else_gene|NA|bound_elsewhere_windowed (ssRNA)
RNA: GGGAGUUCUACAGUCCGACGAUCCAAGCACAUGGCUGACUACCCCGACUACAAGUACCGGCCCAGGAAGAAGGUGAAGUCCGGCAACGCCAACUCCAGCUCCUCGGCCGCCGCCUCCUCCAAGCCGGGGGAGAAGGGAGACAACAACAGAGGAUUGAGCAUCA
B21: chr10:15076158:15076259:-|3pUTR|ENSG00000176244|unk|total|mutant (ssRNA)
RNA: GGGAGUUCUACAGUCCGACGAUCAGAUCCCUUAAGAUAAAUAUCCCCCAAAACAGUGUACCUCUAUUCCCUGCAUAAAAAUUCCGAUUUGGAAUGGUAUGACCAGAGGAACCGAUCCACUUCAUGUUACUACAACAACAAAACCAACAGAGGAUUGAGCAUCA
B22: chr3:69105919:69106020:+|3pUTR|ENSG00000144746|msi1|FALSE|bound_elsewhere (ssRNA)
RNA: GGGAGUUCUACAGUCCGACGAUCGUGCUGCUUCUGAUUUUUCUUGCAUUUUAAAUUCUCAGCCAACCUACAGCCAUGAUCUUUAGCACAGUGAUAUCACCAUGACUUCACAGACAUGGUCUAGAAUCUGUACCCUUACCCACACAACAGAGGAUUGAGCAUCA

The other results are listed elsewhere or left out.

This test deals with T1, UNK ZnF1-6 (called full-length) (human, UniProt Q9C0B0 30-357).
T1 sequence: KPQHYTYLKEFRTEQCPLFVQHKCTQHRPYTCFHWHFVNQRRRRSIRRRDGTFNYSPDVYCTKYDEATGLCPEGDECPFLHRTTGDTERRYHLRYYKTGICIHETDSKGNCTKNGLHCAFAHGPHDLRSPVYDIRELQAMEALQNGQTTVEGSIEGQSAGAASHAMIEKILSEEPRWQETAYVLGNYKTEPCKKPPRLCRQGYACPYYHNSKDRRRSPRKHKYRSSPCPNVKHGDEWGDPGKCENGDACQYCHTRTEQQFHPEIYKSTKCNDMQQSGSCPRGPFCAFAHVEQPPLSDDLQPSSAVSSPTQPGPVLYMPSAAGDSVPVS
Briefly: nsRBNS (natural sequence RNA bind-n-seq); RBNS binding buffer (assumed for nsRBNS): 25 mM Tris pH 7.5, 150 mM KCl, 3 mM MgCl2, 0.01% Triton X-100, 500 ug/ml BSA, 20 U/ml SUPERase-In, 4 C; UNK is unkempt and MSI1 is Musashi-1; names of the RNAs are library labels; protein concentration not given here; high values mean tight binding.
In the case of B1, the binding signal was determined as 0.719 enrichment R.
To B2 belongs 0.452 enrichment R.
The molecule B3 showed a binding signal of 0.625 enrichment R.
To B4 belongs 0.557 enrichment R; to B5, 0.645 enrichment R; to B6, 0.724 enrichment R.
To B7 belongs 0.359 enrichment R; to B8, 0.345 enrichment R.
For B9, the binding signal worked out at 0.686 enrichment R.
B10 yielded a binding signal of 1.02 enrichment R.
To B11 belongs 1.14 enrichment R; to B12, 0.818 enrichment R; to B13, 0.876 enrichment R.
The molecule B14 showed a binding signal of 0.291 enrichment R.
B15 gave a binding signal of 1.53 enrichment R.
To B16 belongs 0.353 enrichment R.
Next, B17: 0.668 enrichment R.
To B18 belongs 0.739 enrichment R.
With B19, the binding signal worked out at 0.607 enrichment R.
Next, B20: 0.687 enrichment R.
B21 showed a binding signal of 0.388 enrichment R.
B22: the binding signal was found to be 0.502 enrichment R.

The record behind these values is PMC12136788.
